Assay results reported in PubChem BioAssay (NCI).
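Protocol summary: plate cells (96-well), add compound at 5 concentrations, incubate 48 h, interpolate endpoints linearly. At the GI50, growth is halved.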 Not every entry of the source has a single result; some have several. They are shown here; other results are not. There may be further records. For part of these data: The values listed for one entry repeat one measurement in other runs, samples, wells, individuals or studies. Brackets tell where a record comes from. Letters hold for one entry only.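 TGI marks complete inhibition of growth.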 For part of these data: The tests behind the records often covered other concentration ranges, not given here; a value can be the end of its range.

Tests used:
Experiment in all cases: DTP human tumour cell line panel, 48 h
[1] = tested on: CAKI-1 renal
[2] = tested on: CCRF-CEM leukemia
[3] = tested on: K-562 leukemia
[4] = tested on: SR leukemia
[5] = tested on: SK-MEL-2 melanoma
[6] = tested on: HOP-92 NSCLC
[7] = tested on: SNB-75 CNS
[8] = tested on: SF-539 CNS
[9] = tested on: EKVX NSCLC
[10] = tested on: HCT-116 colon
[11] = tested on: HS 578T breast
[12] = tested on: LOX IMVI melanoma
[13] = tested on: NCI-H460 lung
[14] = tested on: NCI/ADR-RES ovarian
[15] = tested on: SK-OV-3 ovarian
[16] = tested on: T-47D breast

CCCCCc1c(C)[nH]c(/C=C2\N=C(c3ccc[nH]3)C=C2OCc2ccccc2)c1C
TGI [1]: 1.36 µM and 102 nM
TGI [2]: 1.22 µM and > 100 µM
TGI [3]: 1.25 µM and > 100 µM
TGI [4]: 67.6 nM and > 100 µM

CC(=O)C1(O)Cc2c(O)c3c(c(O)c2C(OC2CC(N)C(O)C(C)O2)C1)C(=O)c1ccccc1C3=O (stereo not drawn)
TGI [1]: 209 nM and 15.4 nM
TGI [2]: 29.8 nM and 320 nM
TGI [5]: 810 nM and 50.6 nM

COc1cc(C2c3cc4c(cc3[C@@H](Nc3ccc(N)cc3)C3COC(=O)[C@H]23)OCO4)cc(OC)c1O (stereo partly drawn)
TGI [6]: 875 nM and 13 µM
TGI [7]: 953 nM and 24 µM

N#Cc1c2c(c(-c3cccs3)n(C3OC(CO)C(O)C(O)C3O)c1=S)CCc1ccccc1-2 (stereo not drawn)
GI50 [8]: 8.01 µM [sample A, mean of 2 tests] and > 100 µM [sample B, mean of 2 tests]

CCC1(O)CC(OC2CC(N(C)C)C(OC3CC(O)C(OC4CCC(=O)C(C)O4)C(C)O3)C(C)O2)c2c(O)c3c(c(O)c2C1C(=O)OC)C(=O)c1cccc(O)c1C3=O (stereo not drawn)
TGI [9]: 169 nM and 15.3 nM
TGI [10]: 300 nM and 11 µM
TGI [11]: 22.1 nM and 1.27 µM
TGI [12]: 112 nM and 3.24 µM
TGI [13]: 15.2 nM and 1.17 µM
TGI [14]: 195 nM and 11.8 µM
TGI [15]: 177 nM and 9.31 µM
TGI [16]: 73 nM and 5.21 µM
